The values that follow come from PubChem BioAssay AID463173 (ICCB-Longwood Screening Facility, Harvard Medical School, 2010).

In all, about 52,000 compounds went through this assay and about 4,300 (8.3%) were called active. Rule as the data show it: active = survival mostly below about 52% (no sharp cut-off); inactive = mostly above about 56%. The list shows a part of the results.

In this test the test system is DeltatarO mutant. Briefly: S. aureus survival, RN4220 and DeltatarO strains – OD600, teichoic acid synthesis inhibitors, primary screen (AID 463173). To be noted: S. aureus RN4220 wild type/DeltatarO growth, OD600, 18 h, hits give low values, screened at 18.75 µg/mL (by protocol).
Regarding `Cc1oc2c(c(C)cc3oc(=O)c(CC(=O)NCCc4ccc(Cl)cc4)c(C)c32)c1C`, the survival was inactive: 80%. With `O=C(NCc1ccccc1)c1ccc2c(c1)sc1nc(-c3ccc(F)cc3)cn12` the figure was inactive: 101%; with `CC(C)c1nn2c(=O)cc(COC(=O)COc3ccccc3F)nc2s1`, inactive: 79%; with `CCc1ccccc1NC(=O)CSc1nc2ccccc2nc1Cc1cccc(OC)c1`, inactive: 86%. The result for `N#CCSc1nnc(-c2ccccc2)n1-c1ccccc1` reads inactive: 96%; that for `COc1cccc(-c2cn3c(n2)sc2cc(C(=O)NCCc4ccccc4)ccc23)c1`, active: 38%; that for `Cc1ccc(C)c(N2CCN(CCCNC(=O)c3ccc4nc(C(C)C)oc4c3)CC2)c1`, inactive: 99%.

On to `Cc1nn(C)c2c1c(C(F)(F)F)cc(=O)n2C(C)C(=O)NCc1ccccc1` (configuration not stated), for which the survival was inactive: 82%. On to `CN(C(=O)CN1CCC(NC(=O)c2ccccc2Br)CC1)C1CCCCC1`, for which the survival is inactive: 97%. In the case of `COc1cc(OC)c(C(=O)NC2CC(C)(C)NC(C)(C)C2)cc1OC`, the survival was inactive: 88%. With `CCOCCc1nn2c(=O)cc(COC(=O)c3ccc4c(c3)OCO4)nc2s1` the figure was inactive: 128%; with `Cn1c(C(=O)Nc2cccc(Cl)c2)cc2c(=O)n(C)c3ccccc3c21`, inactive: 94%. With `COc1ccc(-c2nc(CS(=O)CC(=O)NCc3ccccc3Cl)c(C)o2)cc1OC` (configuration not stated) the figure was inactive: 72%; with `O=S(=O)(c1ccc(Br)cc1)N1CCn2cccc2C1c1ccc(Br)cc1` (configuration not stated), inactive: 66%.

As to `Cc1ccc(CNc2nc3nc(C)c(Cl)c(C)n3n2)cc1`, the survival is inactive: 90%.

As for `CC(C)C1NC(=O)c2c(sc3c2CCCC3)N1` (configuration not stated), the survival is inactive: 72%.

`Cc1cccc(-c2cc(C(=O)O)c3c(-c4ccc(F)cc4)[nH]nc3n2)c1`: the survival is inactive: 83%. The result for `Cc1ccc2nc(N(Cc3cccnc3)C(=O)CCc3ccccc3)sc2c1` reads inactive: 94%; that for `CC1(C(=O)O)COC(c2ccc(Cl)cc2)OC1` (configuration not stated), inactive: 75%. The result for `CC(=O)c1ccc(NC(=O)c2nn(C)c3c2CS(=O)(=O)c2ccccc2-3)cc1` reads inactive: 64%; that for `CCOC(=O)c1ccc(CN(Cc2ccc(Cl)cc2Cl)S(=O)(=O)c2cccc(Cl)c2)cc1`, inactive: 80%; that for `O=C(O)CCSc1nnc(-c2ccc(Cl)cc2Cl)o1`, inactive: 66%. Take `Nc1ccc(S(=O)(=O)N2CCSC2C(=O)O)cc1` (configuration not stated): the survival was inactive: 104%. Turning to `CC1(C)O[C@H]2[C@@H](O1)[C@@H](C(=O)Nc1cc(F)ccc1F)O[C@@H]1OC(C)(C)O[C@@H]12`, the survival was inactive: 103%. With `COc1ccc(CN(C2CCCC2)S(=O)(=O)c2ccc(-n3cnnn3)cc2)cc1` the figure was inactive: 88%. The result for `Cc1ccc(-c2cn3c(n2)sc2cc(C(=O)NC4CCCCC4)ccc23)cc1` reads inactive: 68%; that for `CCOc1ccccc1NC(=O)c1cn(C2CCCCC2)c(=O)c2c1c1ccccc1n2C`, inactive: 82%. The result for `COc1ccc(CCNC(=O)CCn2c(=O)c3cccn3c3ccc(F)cc32)cc1OC` reads active: 45%; that for `O=C1c2ccccc2C(=O)N1CN(Cc1ccccc1)CN1C(=O)c2ccccc2C1=O`, inactive: 85%.

As for `CC1(C)Cc2ccccc2C(N/N=C/c2ccco2)=N1`, the survival was inactive: 84%.

Regarding `Cc1cccc(NC(=O)c2ccc(F)c(S(=O)(=O)N3CCN(c4ccc(F)cc4)CC3)c2)c1`, the survival is active: -1%. With `CCOC(=O)C1=C(CN2CCCCC2)NC(=O)NC1c1ccc(OC)cc1` (configuration not stated) the figure was inactive: 84%.

Take `Cc1nnc(SCC(=O)NCc2ccc(N(C)C)cc2)c2nn(-c3ccccc3)c(C)c12`: the survival is inactive: 75%. For the compound `Cc1ccc(NC(=O)C2CCN(c3nnc(-n4cccc4)s3)CC2)cc1Cl`, the survival was inactive: 87%. The result for `COc1cccc(C(c2c(O)cc(C)n(Cc3ccco3)c2=O)N2CCC(C)CC2)c1` (configuration not stated) reads inactive: 74%; that for `CN(CC(=O)O)Cc1nc2ccccc2[nH]1`, inactive: 103%.

Turning to `COc1ccc(OC)c2sc(N(Cc3cccnc3)C(=O)c3ccc(C(C)=O)cc3)nc12`, the survival is inactive: 120%. The result for `CCN(CC)C(=O)Cn1c(=O)n(CCCCCC(=O)NCc2ccccc2)c(=O)c2sccc21` reads inactive: 64%; that for `COc1ccccc1C(=O)Nc1ccccc1SCc1cc(=O)c2ccccc2[nH]1`, inactive: 81%; that for `O=C(c1ccc2c(c1)N(Cc1ccccc1F)C(=O)c1ccccc1S2=O)N1CCCCC1` (configuration not stated), inactive: 88%.

With `O=C(NC1CC(=O)N(c2ccc(F)cc2)C1)C1CCCCC1` (configuration not stated), the survival is inactive: 66%. The result for `c1ccc(CNc2nnnn2-c2ccccc2)cc1` reads inactive: 93%; that for `Cc1ccn(CC(C)C(=O)O)n1` (configuration not stated), inactive: 94%. Consider `CCOc1cc(/C=C(\C#N)C(=O)Nc2ccccc2C)ccc1OCc1cc(=O)n2nc(CC)sc2n1`, for which the survival is inactive: 105%. The result for `C=CCN1C(=O)C(CCC(=O)O)NC1=S` (configuration not stated) reads inactive: 73%; that for `COc1ccc(CCC(=O)NCc2nc3cccnc3n2Cc2ccc(C)cc2)cc1`, inactive: 86%. With `CCOCCCNC(=O)c1[nH]c2cc(OC)ccc2c1Sc1ccccc1` the figure was inactive: 88%.

On to `Cc1cccc(N(CC(=O)Nc2cccc(Cl)c2C)S(C)(=O)=O)c1C`, for which the survival is inactive: 61%. The result for `Cc1ccc(S(=O)(=O)NCC(c2ccco2)N2CCN(c3ccccc3F)CC2)cc1` (configuration not stated) reads inactive: 83%; that for `CC(C)CCNC(=O)c1cccc(-n2cnc3cccnc32)c1`, inactive: 107%; that for `Cc1ccc(C(=O)COC(=O)c2cccc(NC(=O)c3ccc(Br)cc3)c2)cc1`, inactive: 57%.

For the compound `Cc1cccc(CS(=O)(=O)Cc2ccc(C(=O)NC(C)c3ccccc3)o2)c1` (configuration not stated), the survival is inactive: 102%. With `Cc1ccc2c(c1)-c1c(c(C(=O)NCCc3ccccc3)nn1C)CS2` the figure was active: 37%; with `COc1cccc(CNC(=O)Cn2c(SCC(=O)Nc3ccc(F)cc3)nc3ccccc32)c1`, active: 8%; with `CCc1ccc2[nH]c(=O)c(C(c3nnnn3C3CCCC3)N(C)Cc3ccccc3)cc2c1` (configuration not stated), inactive: 96%. With `CCCCN(CC)CCCNC(=O)C1CCN(c2nc3ccc(CC)cc3s2)CC1` the figure was inactive: 54%.

With `CCCN(C(=O)Cc1c(C(=O)O)[nH]c2ccc(Cl)cc12)c1ccc(OCC)cc1`, the survival is active: 47%. With `CC(C)COc1ccc(-c2nnn(CC(=O)N3C(C)CCCC3C)n2)cc1` (configuration not stated) the figure was active: 69%; with `O=C(NC1CC1)c1ccc(Cn2c(SCc3ccccc3F)nc3cccnc32)cc1`, inactive: 89%. In the case of `Cc1ccc2c(=O)cc(C(=O)Nc3ccc(S(=O)(=O)Nc4onc(C)c4C)cc3)oc2c1`, the survival was inactive: 102%. The result for `Cc1cccc(-n2ncc(C(=O)N3CCN(C(=O)c4ccco4)CC3)c2C2CCN(C(=O)OC(C)(C)C)CC2)c1` reads inactive: 62%.

Take `N#Cc1ccccc1NC(=O)Nc1ccccc1`: the survival was inactive: 116%. The result for `COC(=O)c1c(NC(=O)c2nc(SCc3ccc(C)cc3)ncc2Cl)sc2c1CCCC2` reads active: 46%. The result for `CCNc1nc(NCC)nc(N(C#N)CC)n1` reads inactive: 62%; that for `CCCCCNS(=O)(=O)c1ccc(N2CCCCS2(=O)=O)cc1`, inactive: 77%. With `Cc1nn(CC(=O)O)c(C)c1C` the figure was inactive: 81%. In the case of `COc1ccc(NC(=O)Cn2c(=O)n(CCC(=O)NCCc3ccc(OC)c(OC)c3)c(=O)c3ccccc32)cc1Cl`, the survival was inactive: 68%. The result for `CCCN1C(=O)CN(C2CCCCC2)C(=O)C1c1ccc(OC)c(OC)c1` (configuration not stated) reads inactive: 75%; that for `CC(C)(C)c1ccc(C(=O)Nc2ccc(-c3nc4cc(Cl)ccc4o3)cc2)cc1`, inactive: 70%; that for `CCOc1ccc(NCc2cccn2-c2nnc(N3CCC(C(=O)NCc4ccc(C)cc4)CC3)s2)cc1`, inactive: 74%. The result for `NC(CSC1CCCCO1)C(=O)O` (configuration not stated) reads inactive: 73%; that for `Cc1nnc(N2CCN(c3ccccc3F)CC2)c2c1nnn2Cc1ccccc1Cl`, inactive: 90%. The result for `COc1ccc2nc3oc(C(=O)N(C)c4ccc(Cl)cc4)cc3cc2c1` reads inactive: 85%; that for `CCc1nnc(NC(=O)CSc2nccn2Cc2ccc(F)cc2)s1`, inactive: 131%; that for `COc1ccc(N2CCN(CC(O)COc3ccc(C(C)C)c(C)c3)CC2)cc1` (configuration not stated), inactive: 66%. As to `COC(=O)C(C)Nc1n[nH]c(=S)[nH]c1=O` (configuration not stated), the survival was inactive: 87%. In the case of `Cc1ccc2c(c1)c(=O)c(C(=O)c1ccncc1)cn2CC(=O)Nc1ccc(C(C)C)cc1`, the survival was inactive: 82%. As for `COc1cccc(NC(=O)Cn2nc3c4ccccc4n(Cc4cccc(F)c4)cc-3c2=O)c1`, the survival is inactive: 91%.

As for `Cc1ccc(N2CC(NC(=O)c3ccc(Br)o3)CC2=O)cc1C` (configuration not stated), the survival is active: 37%. As for `COc1cccc2cc(-c3nnc(-c4ccc(Cl)cc4)o3)c(=O)oc12`, the survival was inactive: 115%. With `CCc1nn(CC(=O)N2CCN(c3cccc(C(F)(F)F)c3)CC2)c(=O)c2cc3occc3n12` the figure was inactive: 94%.

For the compound `Cc1cc(C(F)F)n2ncc(C(=O)NCc3ccccc3)c2n1`, the survival is inactive: 95%. With `COc1cccc(N2CCN(C(=O)Cn3cnc4onc(-c5ccc(F)cc5)c4c3=O)CC2)c1` the figure was inactive: 117%; with `CCCCCn1c(=O)[nH]c2cc(C(=O)Nc3ccc(OC)c(OC)c3)ccc2c1=O`, inactive: 66%; with `COc1cccc(-c2nc(CS(=O)(=O)CC(=O)NCCCN3CCN(C)CC3)c(C)o2)c1`, inactive: 86%. The result for `COc1ccc(CNc2oc(COc3cccc(C)c3)nc2C#N)cc1` reads active: 40%.

As to `Cn1cc(S(=O)(=O)N2CCCC2)cc1C(=O)Nc1ccc(C(F)(F)F)cc1`, the survival is inactive: 107%. With `O=C(Nc1ccc(NC(=O)c2ccc(Br)cc2)c(Cl)c1)c1ccc(Br)cc1` the figure was inactive: 92%; with `COc1ccc(C(=O)Nc2nc3ccc(S(=O)(=O)N4CCCC4)cc3s2)cc1`, inactive: 83%. With `CC(=O)Nc1cccc(NC(=O)C2(c3cccs3)CCOCC2)c1`, the survival was inactive: 99%. With `Cc1ccc(SCc2nc(-c3ccc(C(=O)NCc4ccccc4Cl)cc3)oc2C)cc1` the figure was inactive: 84%; with `CCOC(=O)CC(=O)CSc1nc2ccccc2c(=O)n1CCc1ccccc1`, inactive: 84%.
